# Whole data set: some 33,000 sequences, median “E-score (-0.5 to 0.5)” near -0.056, cut for the highest 2% near 0.38. The list shows a part of the results.
# Biological target: Stb4 (UniProt P50104)
# Assay: PBM E-score (8-mer binding enrichment) (E-score (-0.5 to 0.5)); higher = stronger / more preferred TF binding; most listed sequences are background and not binding sites
# Settings: protein concentration: 200 nM; construct: GST-DNA-binding domain
# Description: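 Universal 'all 10-mer' protein binding microarrays (Agilent AMADID 015681) probed with GST-tagged S. cerevisiae TFs (full-length or DBD) made by in vitro transcription/translation (PURExpress), about 100-200 nM. Bound TF was detected with fluorescent anti-GST. Each ungapped 8-mer (which stands for itself and its reverse complement) is scored by the PBM enrichment score (E-score), a modified Wilcoxon-Mann-Whitney statistic from -0.5 to +0.5, computed with the Universal PBM Analysis Suite. Scale: above 0.35 generally sequence-specific binding.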
row,Sequence,PBM E-score
1,CGTCTATA,0.0382
2,CACGACCC,-0.0646
3,GCGTAGAA,0.0936
4,ACTGTGTG,-0.0688
5,ATTTTTAC,-0.0304
6,AACCTAGT,-0.074
7,CCGTCGAC,0.0646
8,GCTGATAC,-0.157
9,CCCCAGGA,-0.239
10,AATGACCG,0.125
11,ATCTGCTA,-0.3
12,GTGGTAGA,-0.129
13,AATGCGCG,0.259
14,ACACGCCT,-0.299
15,CTCGCGCA,0.0769
16,AGAAGCTA,0.0103
17,CAAGGCGG,0.0285
18,ACGTTGAC,-0.201
19,AATGGCAC,0.0162
20,GCAGGTAA,0.114
21,GTCCCCAA,-0.231
22,ATACCCAA,-0.0395
23,ATGAACCG,0.129
24,ACGAAAGC,-0.112
25,AATCGTCG,0.121

row,Sequence,PBM E-score
1,ACCTTAAG,-0.0705
2,CCCCGAAA,0.34
3,TAATCACA,-0.14
4,ACCGGTGG,0.0186
5,CCACAGAC,-0.261
6,GGACTCAC,-0.0454
7,GAGGTCAC,-0.096
8,CGACCCCC,-0.0261
9,GTCAATCA,-0.187
10,AATGAGCC,-0.021
11,AAATGTCT,-0.0741
12,ATCTTCCC,0.226
13,CCAAGATC,-0.0491
14,AACCGATG,0.222
15,GCCCGACA,0.187
16,ACGATGAC,-0.046
17,CGCGTCCG,0.06
18,AACGGTGG,-0.23
19,CATAAGAG,-0.0847
20,AGAAGCTC,-0.0652
21,GGAGTGCC,0.138
22,AGAGAGGG,-0.219
23,CATGCAGC,-0.251
24,AAAGCTGC,-0.0187
25,ATGCCTCG,0.0515

row,Sequence,PBM E-score
1,ACCGGGCA,0.165
2,GATGATTA,-0.0207
3,CGTCCGCA,0.0032
4,ACGTTTCC,0.0785
5,CGCTCCAA,-0.0489
6,CGGAGTTA,0.331
7,GTTCTAAA,0.0362
8,TCGAGGAA,-0.13
9,GCCTACAA,-0.00479
10,AACACTTG,-0.0822
11,CCCCGAGA,0.326
12,ACTGCACG,-0.0401
13,CGCTCGTC,-0.19
14,CTAAAAGA,-0.279
15,ATCCGATC,0.428
16,TATATTGA,0.0944
17,ACAACATC,0.00997
18,GCTTATCA,-0.119
19,AATAACGC,-0.202
20,GGTGAACC,0.0847
21,CCCCGATA,0.145
22,CTCGTGGC,-0.0619
23,AGTCTATC,-0.0666
24,CCCTTAAG,-0.0177
25,AGTTAGAA,0.128

row,Sequence,PBM E-score
1,CCGGTGTA,0.211
2,CCTAAGTA,-0.0289
3,AACGGCCT,-0.0804
4,CACACTTA,-0.00541
5,GAGGAGTA,-0.00803
6,GCAACGTA,-0.231
7,AGTGGCTG,-0.055
8,AGGCCTGA,-0.12
9,CGATCCAA,-0.122
10,ATCGAATG,-0.251
11,CTATGTAA,-0.228
12,AGCACTAT,-0.195
13,TAGGTGGA,-0.279
14,CCATATAG,-0.082
15,GGATCATA,0.228
16,AAATATAC,0.00214
17,AACTAGTT,-0.162
18,GTTCTCCA,-0.108
19,CGACCAAA,0.149
20,CGTATGGA,-0.0248
21,ACTCGTAC,-0.0691
22,GGCTAACA,0.057
23,CCAACTGG,-0.253
24,ATTAACTA,-0.191
25,ATACCGAC,0.167

row,Sequence,PBM E-score
1,ATTAATGG,0.0395
2,ATATACCA,-0.153
3,GCTGAGTA,-0.26
4,ATGTCTAA,-0.225
5,AGTGATAC,-0.167
6,GAACAGGA,-0.0169
7,CAAGTTGC,0.035
8,CCTCCACA,-0.208
9,GTGCCTTA,-0.136
10,AGTACCTC,-0.124
11,GTTTAACA,-0.0992
12,ACGTTAGA,-0.0864
13,CAGACGAC,-0.289
14,CAAACGCC,-0.0471
15,AAGTCACA,-0.153
16,GGTTCCCA,-0.0962
17,GGAATGAC,0.107
18,CGCCGTTA,0.0411
19,AAATCAGT,0.0784
20,ATTGGAGC,-0.113
21,GTCACGAC,-0.0624
22,ATAACCAC,0.0174
23,CCCAACAG,-0.222
24,ACTCTTAG,-0.232
25,GATCTCCA,-0.133

row,Sequence,PBM E-score
1,GAACCAAC,-0.0243
2,ATCCGCCA,0.324
3,GATATCGA,-0.107
4,ACGTTCAT,-0.283
5,GACACCCA,-0.154
6,GGGCCAGA,-0.0162
7,AAGAATCT,-0.0901
8,GGCTTCCC,0.143
9,AGGTCGAT,0.0379
10,GATACGAC,-0.14
11,AAGCCTCA,-0.0973
12,TCTCCTAA,-0.31
13,AACAGCGC,-0.133
14,GGTTCCAA,0.196
15,ACAACTAG,0.0102
16,TACTTCGA,0.0368
17,ACGTAAAC,-0.0878
18,AAACCGTC,0.118
19,AATGCTAT,-0.157
20,GGGCTAGA,0.00508
21,ACTCCTCC,0.166
22,AGGCATGA,-0.112
23,TCGAAAAA,-0.00854
24,ACCGACTA,0.139
25,AGCTGCAA,-0.0718

row,Sequence,PBM E-score
1,GACCCCGA,0.288
2,GGGTGGAC,0.11
3,CGATTTGA,-0.0548
4,GAACTCCC,0.174
5,ACTTTATC,0.0704
6,GGGCCTCA,0.0712
7,GGAGCTTA,0.0651
8,CAAATGCC,0.11
9,CCGAGCGA,0.403
10,GGGATAAC,0.0907
11,AAGACCCG,0.282
12,AATAGGCT,-0.175
13,CTAATTGC,0.0722
14,CAGCGCCC,-0.154
15,GGGTCTCA,8e-05
16,GTCGGCAA,0.368
17,CCTGTTGC,-0.154
18,ATACACGA,-0.09
19,AGACAGGC,-0.103
20,AAGGTCCT,-0.133
21,CATACATA,-0.216
22,AATCGAGT,-0.0955

# Source: the supplement of paper PMC3334620
